In publication PMC4605303:
No constants are given. Whether binding was seen depends on the method and setting. Binding seen in cells or lysates may run through a third protein. Some entries that bind do so weakly or less than the wild type.

The chains behind the UniProt entries cited, without tags or fusion partners.
UniProt O14893: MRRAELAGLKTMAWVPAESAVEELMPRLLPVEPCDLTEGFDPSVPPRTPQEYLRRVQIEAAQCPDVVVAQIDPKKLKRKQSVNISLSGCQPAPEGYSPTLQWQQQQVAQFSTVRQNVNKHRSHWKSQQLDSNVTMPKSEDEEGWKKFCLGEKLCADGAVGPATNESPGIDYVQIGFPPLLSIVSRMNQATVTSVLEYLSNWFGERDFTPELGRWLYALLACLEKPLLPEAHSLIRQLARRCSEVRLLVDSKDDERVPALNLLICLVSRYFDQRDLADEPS
UniProt Q9H840: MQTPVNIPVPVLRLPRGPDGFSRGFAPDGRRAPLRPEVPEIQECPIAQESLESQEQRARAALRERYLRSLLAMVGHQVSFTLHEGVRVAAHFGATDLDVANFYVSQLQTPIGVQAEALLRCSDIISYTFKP
UniProt Q9UHI6: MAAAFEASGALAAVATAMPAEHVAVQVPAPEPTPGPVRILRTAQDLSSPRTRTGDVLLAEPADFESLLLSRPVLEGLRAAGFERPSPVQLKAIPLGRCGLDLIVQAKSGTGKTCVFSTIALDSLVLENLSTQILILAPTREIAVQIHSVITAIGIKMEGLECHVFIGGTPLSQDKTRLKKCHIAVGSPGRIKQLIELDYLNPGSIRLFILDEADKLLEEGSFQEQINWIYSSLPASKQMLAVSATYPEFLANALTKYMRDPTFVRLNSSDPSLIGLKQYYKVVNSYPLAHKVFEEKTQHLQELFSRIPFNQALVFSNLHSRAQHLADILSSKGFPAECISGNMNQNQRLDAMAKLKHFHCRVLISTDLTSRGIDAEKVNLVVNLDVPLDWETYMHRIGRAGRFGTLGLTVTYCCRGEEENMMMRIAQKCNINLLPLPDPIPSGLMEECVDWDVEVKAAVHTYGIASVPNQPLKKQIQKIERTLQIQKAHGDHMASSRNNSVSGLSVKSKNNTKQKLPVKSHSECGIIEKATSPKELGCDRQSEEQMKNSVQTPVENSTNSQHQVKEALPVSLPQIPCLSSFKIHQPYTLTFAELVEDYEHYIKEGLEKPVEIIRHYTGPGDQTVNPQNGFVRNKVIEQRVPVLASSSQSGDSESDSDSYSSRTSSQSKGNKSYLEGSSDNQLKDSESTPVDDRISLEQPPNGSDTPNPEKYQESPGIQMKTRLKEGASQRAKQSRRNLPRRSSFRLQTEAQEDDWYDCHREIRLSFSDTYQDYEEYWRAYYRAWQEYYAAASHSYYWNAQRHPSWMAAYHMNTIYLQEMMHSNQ
UniProt P04406: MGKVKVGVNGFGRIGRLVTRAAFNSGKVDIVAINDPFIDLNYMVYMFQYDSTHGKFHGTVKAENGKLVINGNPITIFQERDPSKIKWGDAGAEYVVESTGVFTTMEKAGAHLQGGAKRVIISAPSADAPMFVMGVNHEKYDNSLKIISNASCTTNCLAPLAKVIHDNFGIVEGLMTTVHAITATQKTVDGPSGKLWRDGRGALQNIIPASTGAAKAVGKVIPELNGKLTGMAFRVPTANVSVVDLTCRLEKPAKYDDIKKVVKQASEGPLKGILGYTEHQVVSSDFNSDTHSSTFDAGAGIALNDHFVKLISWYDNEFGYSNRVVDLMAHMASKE
UniProt P57678: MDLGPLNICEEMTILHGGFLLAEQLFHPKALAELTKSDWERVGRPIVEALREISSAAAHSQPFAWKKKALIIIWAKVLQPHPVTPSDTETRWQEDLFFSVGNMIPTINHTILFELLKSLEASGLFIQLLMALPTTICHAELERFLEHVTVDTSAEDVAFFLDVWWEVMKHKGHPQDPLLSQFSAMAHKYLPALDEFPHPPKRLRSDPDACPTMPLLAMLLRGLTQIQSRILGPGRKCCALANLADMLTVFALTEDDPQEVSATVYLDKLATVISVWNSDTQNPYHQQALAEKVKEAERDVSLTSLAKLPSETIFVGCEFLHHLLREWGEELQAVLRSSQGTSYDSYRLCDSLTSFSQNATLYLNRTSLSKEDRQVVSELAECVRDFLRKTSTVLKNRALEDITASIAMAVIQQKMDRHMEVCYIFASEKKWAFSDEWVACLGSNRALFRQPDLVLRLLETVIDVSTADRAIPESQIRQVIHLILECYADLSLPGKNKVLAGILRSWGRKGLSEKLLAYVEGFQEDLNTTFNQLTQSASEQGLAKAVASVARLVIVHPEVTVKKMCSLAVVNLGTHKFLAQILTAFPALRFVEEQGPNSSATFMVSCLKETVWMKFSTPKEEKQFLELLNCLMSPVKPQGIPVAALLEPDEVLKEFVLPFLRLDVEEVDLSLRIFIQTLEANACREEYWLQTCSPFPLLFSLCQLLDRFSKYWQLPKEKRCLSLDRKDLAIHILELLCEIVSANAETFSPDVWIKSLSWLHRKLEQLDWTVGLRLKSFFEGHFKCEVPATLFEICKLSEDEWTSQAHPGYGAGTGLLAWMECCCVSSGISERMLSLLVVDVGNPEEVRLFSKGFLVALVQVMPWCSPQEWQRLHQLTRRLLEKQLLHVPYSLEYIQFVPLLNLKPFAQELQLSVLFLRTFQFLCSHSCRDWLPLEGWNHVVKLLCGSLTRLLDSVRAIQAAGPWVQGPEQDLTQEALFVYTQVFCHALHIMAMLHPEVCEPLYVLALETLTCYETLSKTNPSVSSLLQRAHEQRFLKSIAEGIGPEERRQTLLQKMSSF
UniProt Q8WXD5: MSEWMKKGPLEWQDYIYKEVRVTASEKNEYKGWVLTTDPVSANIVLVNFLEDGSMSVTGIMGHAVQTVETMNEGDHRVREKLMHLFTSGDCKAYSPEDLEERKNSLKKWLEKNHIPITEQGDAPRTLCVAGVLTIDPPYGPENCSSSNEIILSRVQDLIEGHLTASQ
UniProt Q16637: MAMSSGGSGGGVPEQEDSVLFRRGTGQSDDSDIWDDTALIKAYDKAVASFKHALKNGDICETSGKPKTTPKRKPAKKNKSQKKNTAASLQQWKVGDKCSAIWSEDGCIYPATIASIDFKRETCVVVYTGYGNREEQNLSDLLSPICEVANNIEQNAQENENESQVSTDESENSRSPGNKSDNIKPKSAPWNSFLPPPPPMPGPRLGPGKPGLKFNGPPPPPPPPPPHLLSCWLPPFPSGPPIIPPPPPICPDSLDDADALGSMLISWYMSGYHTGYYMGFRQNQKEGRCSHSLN
UniProt Q9UHK0: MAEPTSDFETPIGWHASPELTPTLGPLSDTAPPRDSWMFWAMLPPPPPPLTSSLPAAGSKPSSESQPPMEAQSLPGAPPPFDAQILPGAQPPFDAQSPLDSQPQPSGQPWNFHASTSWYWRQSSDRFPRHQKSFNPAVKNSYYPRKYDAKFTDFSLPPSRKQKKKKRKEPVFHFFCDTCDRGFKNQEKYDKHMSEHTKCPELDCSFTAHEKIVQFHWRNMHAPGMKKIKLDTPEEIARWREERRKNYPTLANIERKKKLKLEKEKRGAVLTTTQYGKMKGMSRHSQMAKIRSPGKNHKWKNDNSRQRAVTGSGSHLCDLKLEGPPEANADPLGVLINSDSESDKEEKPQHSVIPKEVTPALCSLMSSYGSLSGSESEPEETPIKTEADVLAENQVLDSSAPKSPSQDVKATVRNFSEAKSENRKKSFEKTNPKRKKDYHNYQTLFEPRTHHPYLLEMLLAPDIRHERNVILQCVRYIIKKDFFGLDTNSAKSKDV

Legend:
Experiment in all cases: proximity ligation; in situ PLA (DuolinkII) on fixed, permeabilized HeLa cells with primary antibodies against the two endogenous proteins
[1] = biological target: Gemin2 (endogenous, HeLa) (human (endogenous in HeLa)) (UniProt O14893)
[2] = biological target: Gemin7 (endogenous, HeLa) (human (endogenous in HeLa)) (UniProt Q9H840)
[3] = biological target: Gemin3 (endogenous, HeLa) (human (endogenous in HeLa)) (UniProt Q9UHI6)
[4] = biological target: GAPDH (endogenous, HeLa) (human (endogenous in HeLa)) (UniProt P04406)
[5] = biological target: Gemin4 (endogenous, HeLa) (human (endogenous in HeLa)) (UniProt P57678)
[6] = biological target: Gemin6 (endogenous, HeLa) (human (endogenous in HeLa)) (UniProt Q8WXD5)
[7] = biological target: SMN (endogenous, HeLa) (human (endogenous in HeLa)) (UniProt Q16637)
[8] = biological target: T1, Gemin8 (endogenous, HeLa) (human (endogenous in HeLa)) (UniProt Q9NWZ8)
T1 sequence: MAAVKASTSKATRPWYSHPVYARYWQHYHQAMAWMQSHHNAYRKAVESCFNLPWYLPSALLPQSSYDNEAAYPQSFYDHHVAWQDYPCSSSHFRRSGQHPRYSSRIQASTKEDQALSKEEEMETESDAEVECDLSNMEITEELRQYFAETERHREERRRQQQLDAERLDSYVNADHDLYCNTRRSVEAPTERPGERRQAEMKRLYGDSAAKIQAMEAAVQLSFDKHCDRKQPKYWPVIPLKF

binding [1]: binds
binding [2]: binds
binding [3]: binds
binding [4]: no binding
binding [5]: binds
binding [6]: binds
binding [7]: binds
binding [8]: binds
Substance: NUFIP (endogenous, HeLa) (from UniProt Q9UHK0 1-495)
